Measurements from the supplement of paper PMC3334620.
The full ranking holds about 33,000 sequences; the median of “E-score (-0.5 to 0.5)” is about -0.04, and the highest 2% start at about 0.36. The list shows a part of the results.

molecular target: T1, Hmlalpha2 (UniProt P0CY09); assay: PBM E-score (8-mer binding enrichment) (E-score (-0.5 to 0.5)); higher = stronger / more preferred TF binding; most listed sequences are background and not binding sites; details: protein concentration: 200 nM; construct: GST-full length
T1 sequence: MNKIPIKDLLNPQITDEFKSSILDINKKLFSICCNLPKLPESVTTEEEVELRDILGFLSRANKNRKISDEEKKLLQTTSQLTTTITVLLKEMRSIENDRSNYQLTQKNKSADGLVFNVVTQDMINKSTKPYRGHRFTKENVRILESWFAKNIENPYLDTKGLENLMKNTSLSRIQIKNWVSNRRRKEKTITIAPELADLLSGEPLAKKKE
Outline: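 Bound GST-tagged yeast transcription factors, applied at about 100-200 nM to double-stranded universal all-10-mer Agilent arrays, were detected with fluorescent anti-GST. Scans were normalised with masliner. A modified Wilcoxon-Mann-Whitney statistic, the E-score, was assigned to each ungapped eight-base word pooled with its reverse complement by the Universal PBM Analysis Suite.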

Sequence | PBM E-score
GTAACTAA | 0.163
CATTGGAG | -0.13
CAAACGCA | 0.149
CATCTAAC | 0.00439
CGGTGCTA | -0.273
CATATTGA | 0.101
AGCCCGGA | -0.327
ACGGACCC | -0.295
ACGTAAAT | 0.376
AGAGACAC | 0.00397
AGAAAACT | 0.185
GCGAACCC | -0.103
CCATGTCC | -0.00972
CTGGGTCC | -0.211
AATGTCGT | 0.23
CGAACGTA | 0.122
GGCCGCAA | -0.165
ACACTAAA | 0.202
AGCGCGTC | -0.00218
GCAGCACC | -0.183
CGTTAGAA | 0.0666
ACTTCCTA | -0.0845
TGATTTAA | 0.211
GCAATTGC | -0.0549
AAAGTCTC | -0.181

Sequence | PBM E-score
ACAGCGAG | 0.0402
CCACGTGA | -0.0869
ACCGAAAA | 0.145
ATATAGGC | -0.102
CAACAAGC | 0.304
AACCTTAA | 0.0676
GGGGCTAA | -0.207
GGGTGCTA | -0.0803
AGTGCTAA | -0.106
TACCTCCA | -0.0164
ACACTACC | 0.0426
GTCAGCCA | -0.237
AGGGATTG | -0.194
GCGCGGTA | 0.0518
ATTTGGAG | -0.15
GAGACGTA | 0.0981
TCTGAGCA | -0.0476
ACCCTATC | -0.235
CCTATTTC | 0.0862
CGTACTCC | -0.00105
CCTGTATA | 0.0463
ACATTAAA | 0.282
AGTCATAT | 0.0645
ACCGATCG | -0.0666
AAGCTTAG | 0.125

Sequence | PBM E-score
CGACAGGA | 0.0472
ATCGCACA | 0.0248
CATGCACA | 0.206
GCGCATGA | -0.252
CAACCCTG | 0.0973
ACCTACGT | 0.161
GGGACTTA | -0.128
CTACGAAG | -0.0712
AGCATCCG | 0.0084
ATGCTCTG | -0.166
CCTCTCGA | -0.18
CAATGTTC | 0.0235
GGATTGTA | 0.106
ACGGCGCC | -0.211
AACGTGGG | -0.0455
TCCGATAA | -0.244
AGTGGATA | -0.0729
GAGTATGA | 0.105
ACTATTGA | 0.0542
CGGGGGAG | -0.385
TGCACTAA | 0.143
AGATTCGG | 0.0704
AGCACATC | -0.136
GACGGATA | -0.056
ATCGCTTA | -0.0705

Sequence | PBM E-score
GTCGTTAA | 0.209
CACTAGTG | -0.11
CATTATGA | -0.097
AGCCCCTC | -0.288
CCCAAAAC | 0.154
CCAGCTTC | -0.101
CGCACTAC | 0.00519
CCCCTACG | -0.423
CACGGTAG | -0.0692
CAAGGATA | 0.00467
ACCACTTG | 0.0313
TAATTATA | 0.245
CTGAATAA | 0.0222
GGCGAAGA | -0.227
AGACGGGG | -0.297
ATAACCCC | -0.142
CAGTACTA | -0.00155
CCGTGTAC | 0.422
ACCAAGGA | -0.169
ATCGGGGC | -0.175
ACTCTCCC | -0.283
AATAGACT | -0.106
TCGGCAAA | -0.138
GAGCGATC | -0.195
ATCGCACG | -0.00999

Sequence | PBM E-score
GACATAGC | 0.223
AAGCGCGA | 0.0244
ATCAGTTG | 0.105
CGACCAGA | -0.142
GATCTTGC | -0.0142
CTTCCATC | -0.272
GACGAAGC | -0.0232
GGAACGAC | 0.0513
CGTCCGAC | -0.085
CATCCCCC | -0.376
ATATAGTA | 0.225
CTAATAGA | -0.0104
GCCGCGAA | -0.281
ACCAGGAG | -0.152
AAGTAGAA | 0.0823
ACAAGACC | 0.149
CTCGAAGC | -0.123
CGAAATAG | 0.0467
AGAGGTAC | -0.201
CTCATAAG | -0.177
TCTGCGCA | -0.00074
AATTCCTC | -0.0947
CCTATATC | -0.117
GTCGTGGA | -0.154
ACATGAGT | 0.364

Sequence | PBM E-score
GATTTTAC | 0.218
ACTTGAGC | -0.191
GCAAGCGA | 0.0703
AACCAAGA | 0.14
AAGGGATA | 0.0872
CGACAACC | -0.0325
CAGCTCGC | -0.145
AAAGAGCT | -0.0941
AGTTGAAT | 0.137
AATTTCTC | -0.0474
TCCACCAA | -0.0847
CTGAAAGC | 0.00068
ATGGACTG | -0.108
AGCTATAG | -0.191
CGACTACA | 0.201
AGCAAAGA | -0.164
GGGGGTAC | -0.238
AGGACCGC | -0.0857
GAAATTTC | -0.375
GAGTACTA | 0.154
CGTGCGCC | -0.0965
ATGTGCGA | -0.155
GCGGATAC | 0.201
ATGGCGGA | -0.254
CACCAAGA | 0.0145

Sequence | PBM E-score
ATTGGTCC | 0.0463
AACGTTGG | 0.178
AGGAGACT | -0.134
CACGCTCA | 0.117
AGTGGCAA | -0.127
AACCCTCC | -0.188
ATAAGTCG | -0.13
CTAAAGGA | -0.0463
GGGTAGGA | -0.0133
CTCCACAA | -0.0113
CCGAACGG | -0.135
GCCCAAAA | 0.0822
ATTTTTTG | 0.0078
CAATACTA | -0.0143
CAGTCATG | -0.0959
AACGACTT | -0.0591
CTTAGAAG | -0.147
CCCGGGTA | -0.0123
AAACGTTG | -0.0261
AGCATCGC | -0.231
GACTCCTA | -0.133
AGCGTATG | 0.0798
CATTCTAC | 0.166
ACGTCGTG | 0.157
CCCCACAG | -0.117

Sequence | PBM E-score
GATCTACC | -0.0792
ACCGTGCG | 0.0863
CGGCTTAA | 0.0109
AACATACA | 0.368
AGCAATAG | -0.138
GTTCCTCA | -0.0802
GTAGGCAA | 0.0201
AGAGGCTA | -0.207
AGTTTCCA | -0.0278
ATTGCTGG | -0.164
CTATGGAC | -0.125
TATCCACA | -0.0396
ACGTCTTG | 0.0645
CGTAGCTA | -0.0528
AATAATCC | 0.154
AACTCTGG | -0.118
ACCCGCCC | -0.0901
GTACCTAA | 0.131
CGGGCTGC | -0.193
CTGGCTAC | -0.172
GATTTATA | 0.174
AACCCTGC | -0.154
ATGTGTCA | 0.261
CACATATG | 0.135
ACAATCCT | 0.0381

Sequence | PBM E-score
CGGCACCA | -0.0392
GAGACGGC | -0.31
CTATGTAC | 0.401
AACTAATC | -0.04
AATACCAA | 0.129
GGATCAGA | -0.151
GATTAAGA | 0.0797
AGGAAAAT | -0.00136
ATTACCAC | 0.219
AATATATC | 0.149
GAAGCTTA | 0.135
AACTGACA | 0.148
GAACGGTC | -0.304
TCTTTTCA | -0.00632
AAGCCATA | -0.233
ACGCTCCC | -0.0805
ACCGGAGT | -0.0629
GGCTTTAC | 0.201
AATAGACA | 0.151
